Source: patent EP4800008A1, “PYRAZOLE DERIVATIVE, OR ACCEPTABLE SALT THEREOF OR N-OXIDE THEREOF, AGRICULTURAL AND HORTICULTURAL CHEMICAL, AND INDUSTRIAL MATERIAL PROTECTANT” (Kureha Corporation, priority 2023, dated 2025)

Assays:
[1] = system: Penicillium italicum; assay: Antifungal activity test against plant pathogenic fungi (Petri dish test), citrus blue mold fungi; settings: read-out: mycelial growth inhibition rate; for inhibition at 100 µg/mL: 72 h
Description: (§1) The antifungal action of the compound according to an embodiment of the present invention against various plant pathogenic filamentous fungi was tested by a Petri dish test.
(§2) The compound according to an embodiment of the present invention was dissolved in dimethyl sulfoxide to a predetermined concentration and added to a PDA culture medium (potato dextrose agar medium) sterilized by autoclave and then cooled to around 60°C in an amount of 1% (V/V). The culture medium was poured into the Petri dish and a plate culture medium containing the compound of an embodiment of the present invention was prepared by mixing thoroughly so that the chemical concentration in the PDA culture medium was uniform.
(§3) On the other hand, the fungal colony of various plant pathogenic microorganisms previously cultured on the PDA culture medium was punched out using a cork borer having a diameter of 4 mm, and inoculated into the aforementioned chemical containing plate culture medium. After culture was performed at a predetermined temperature for a predetermined period of time according to Table 3, the colony diameter on the chemical-treated plate was measured. The mycelial growth inhibition rate (%) was calculated by the following formula in comparison with a diameter of the fungal colony on the untreated plate containing no chemical. R = 100(dc−dt)/dc [formula] (where R = mycelial growth inhibition rate (%), dc = colony diameter on untreated plate, dt = colony diameter on chemical-treated plate.) A larger mycelial growth inhibition rate indicates better antimicrobial action.
An antifungal test was performed using a citrus blue mold fungi according to the aforementioned method.
For the compound I-18 and the control compound C, the antifungal activity test against the citrus blue mold fungi (Botrytis cinerea) was performed in the same manner as in Test Example 1 except for changing the concentration to a predetermined concentration.

[2] = system: Zymoseptoria tritici; assay: Antifungal activity test against plant pathogenic fungi (Petri dish test), wheat leaf blight fungi; settings: read-out: mycelial growth inhibition rate; for inhibition at 100 µg/mL: 336 h
Description: as §1, §2, §3
An antifungal test was performed using a wheat leaf blight fungi according to the aforementioned method.
(§4) For the compounds I-16, I-18, and I-48 and the control compound A, the antifungal activity test against plant pathogenic fungi and the wheat leaf blight (Zymoseptoria tritici) control efficacy test were performed in the same manner as in Test Example 1-1 and Test Example 4 except for changing the concentration to a predetermined concentration.

[3] = system: Fusarium graminearum; assay: microbe, parasite or virus in culture; settings: for inhibition at 100 µg/mL: 72 h, read-out: mycelial growth inhibition rate, 100 mg/L, PDA medium, 25 °C, Day 3
Description: as §1, §2, §3
An antifungal test was performed using a wheat Fusarium head blight fungi according to the aforementioned method.
For the compound I-87 and the control compound D, the antifungal activity test against wheat fusarium head blight (Fusarium graminearum) was performed in the same manner as in Test Example 1 except for changing the concentration to a predetermined concentration.

[4] = system: Zymoseptoria tritici; assay: Wheat leaf blight control efficacy test; settings: 100 g ai/ha sprayed at 1000 L/ha on wheat; day 27 to day 33 after inoculation
Description: Wheat (variety: Norin No. 61) was cultivated from the first to second leaf stage using a square plastic pot (6.5 cm × 6.5 cm). The compound according to an embodiment of the present invention was dissolved in acetone containing 60 ppm of Gramin S, 5% (V/V) of this solution was added to water containing 60 ppm of Gramin S in a manner that the concentration became 100 g ai/ha, and this liquid was sprayed on wheat at a ratio of 1000 L/ha. After the sprayed liquid on the plant body was air-dried, the spore of wheat leaf blight fungi (adjusted to 1 × 10^7/mL, with Gramin S added to 60 ppm) was spray-inoculated, and kept at 20°C under high-humidity conditions for 72 hours. Subsequently, it was managed in an artificial weather chamber. On day 27 to day 33 after inoculation, the disease spot area ratio of wheat leaf blight was investigated, and the control efficacy was calculated in the same manner as in Test Example 2.
as §4

[5] = system: Blumeria graminis; assay: Wheat powdery mildew control efficacy test; settings: 100 g ai/ha sprayed at 1000 L/ha on wheat; day 6 to day 8 after inoculation
Description: Wheat (variety: Norin No. 61) was cultivated from the first to second leaf stage using a square plastic pot (6.5 cm × 6.5 cm). The compound according to an embodiment of the present invention was dissolved in acetone containing 60 ppm of Gramin S, 5% (V/V) of this solution was added to water containing 60 ppm of Gramin S in a manner that the concentration became 100 g ai/ha, and this liquid was sprayed on wheat at a ratio of 1000 L/ha. The sprayed liquid on the plant body was air-dried, and then the spore of wheat powdery mildew from wheat powdery mildew seedlings was sprinkled on and inoculated. Subsequently, it was managed in a greenhouse. On day 6 to day 8 after inoculation, the disease spot area ratio of wheat powdery mildew was investigated, and the control efficacy was calculated in the same manner as in Test Example 2.

Structure (SMILES)	inhibition at 100 µg/mL [1]	inhibition at 100 µg/mL [2]	inhibition at 100 µg/mL [3]	inhibition at 12.5 ppm ([3]; read-out: mycelial growth inhibition rate, 12.5 ppm, as Test Example 1)	inhibition at 100 ppm ([3]; read-out: mycelial growth inhibition rate, 100 ppm, as Test Example 1)	inhibition at 12.5 ppm [1]	inhibition at 100 ppm [1]	inhibition at 1.56 ppm [2]	inhibition at 12.5 ppm [2]	control efficacy [4]	control efficacy [5]
CON(C(=O)c1cn(C)nc1C(F)F)C(C)Cc1ccc(C#CCOc2ncc(Cl)cc2Cl)cc1Cl (stereo not shown) [Compound I-41]	≥ 80%	≥ 80%	≥ 70%	–	–	–	–	–	–	–	–
CC(c1ccc(C#Cc2ccc(Cl)cc2)cc1Cl)N(C(=O)c1cn(C)nc1C(F)F)C1CC1 (stereo not shown) [Control compound D, reference compound]	–	–	–	57%	61%	–	–	–	–	–	–
CON(C(=O)c1cn(C)nc1C(F)F)C(C)Cc1c(Cl)cc(Cl)cc1Cl (stereo not shown) [Control compound C, reference compound]	–	–	–	–	–	74%	77%	–	–	–	–
CON(C(=O)c1cn(C)nc1C(F)F)C(C)Cc1ccc(C#CCOCc2ccccc2)cc1Cl (stereo not shown) [Compound I-18]	≥ 80%	≥ 80%	≥ 70%	–	–	80%	86%	79%	95%	≥ 80%	≥ 80%
